Source: paper PMC3526545, “New perspectives for natural antimicrobial peptides: application as antinflammatory drugs in a murine model” (BMC Immunology, 2012)
Like-named read-outs stand apart in the source and are kept apart here.

System: Staphylococcus epidermidis strains
Test: Antibiotic susceptibility, disk diffusion method on Mueller-Hinton agar
Assay type: cell-based
[1] = strain 2/2, disk diffusion, Mueller-Hinton agar, NCCLS guidelines
[2] = strain 3/28, disk diffusion, Mueller-Hinton agar, NCCLS guidelines
[3] = strain 5/6, disk diffusion, Mueller-Hinton agar, NCCLS guidelines
[4] = strain 5/8, disk diffusion, Mueller-Hinton agar, NCCLS guidelines
[5] = strain 5/25, disk diffusion, Mueller-Hinton agar, NCCLS guidelines
[6] = strain 9/1, disk diffusion, Mueller-Hinton agar, NCCLS guidelines
[7] = strain 10/28, disk diffusion, Mueller-Hinton agar, NCCLS guidelines
[8] = strain 12/14, disk diffusion, Mueller-Hinton agar, NCCLS guidelines
[9] = strain 12/26, disk diffusion, Mueller-Hinton agar, NCCLS guidelines
[10] = strain SE, disk diffusion, Mueller-Hinton agar, NCCLS guidelines, disk content as in antibiotic code

CC1(C)S[C@@H]2[C@H](NC(=O)Cc3ccccc3)C(=O)N2[C@H]1C(=O)O [P10, penicillin-G]
R: antibiotic susceptibility test [1] | antibiotic susceptibility test [2] | antibiotic susceptibility test [3] | antibiotic susceptibility test [4] | antibiotic susceptibility test [5] | antibiotic susceptibility test [6] | antibiotic susceptibility test [7] | antibiotic susceptibility test [8] | antibiotic susceptibility test [9] | antibiotic susceptibility test [10]

CCN1CCN(C(=O)N[C@@H](C(=O)N[C@@H]2C(=O)N3[C@@H]2SC(C)(C)[C@@H]3C(=O)O)c2ccccc2)C(=O)C1=O [PIP100, piperacillin]
R: antibiotic susceptibility test [1] | antibiotic susceptibility test [3] | antibiotic susceptibility test [4] | antibiotic susceptibility test [5] | antibiotic susceptibility test [6] | antibiotic susceptibility test [7] | antibiotic susceptibility test [8] | antibiotic susceptibility test [9] | antibiotic susceptibility test [10]
S: antibiotic susceptibility test [2]

CO[C@H]1/C=C/O[C@@]2(C)Oc3c(C)c(O)c4c(O)c(c(/C=N/N5CCN(C)CC5)c(O)c4c3C2=O)NC(=O)/C(C)=C\C=C\[C@H](C)[C@H](O)[C@@H](C)[C@@H](O)[C@@H](C)[C@H](OC(C)=O)[C@@H]1C [RF30, rifampicin]
S: antibiotic susceptibility test [2] | antibiotic susceptibility test [3] | antibiotic susceptibility test [4] | antibiotic susceptibility test [5] | antibiotic susceptibility test [6] | antibiotic susceptibility test [7] | antibiotic susceptibility test [9]
R: antibiotic susceptibility test [8] | antibiotic susceptibility test [10]
I: antibiotic susceptibility test [1]

CN(C)[C@@H]1C(O)=C(C(N)=O)C(=O)[C@@]2(O)C(O)=C3C(=O)c4c(O)cccc4[C@@](C)(O)[C@H]3[C@H](O)[C@@H]12 [T30, oxytetracycline]
R: antibiotic susceptibility test [4] | antibiotic susceptibility test [7] | antibiotic susceptibility test [8]
I: antibiotic susceptibility test [10]
S: antibiotic susceptibility test [1] | antibiotic susceptibility test [2] | antibiotic susceptibility test [3] | antibiotic susceptibility test [5] | antibiotic susceptibility test [6] | antibiotic susceptibility test [9]

CN(C)[C@@H]1C(O)=C(C(N)=O)C(=O)[C@@]2(O)C(O)=C3C(=O)c4c(O)cccc4[C@@](C)(O)[C@H]3C[C@@H]12 [TE30, tetracycline]
S: antibiotic susceptibility test [4] | antibiotic susceptibility test [5] | antibiotic susceptibility test [6] | antibiotic susceptibility test [9]
R: antibiotic susceptibility test [8] | antibiotic susceptibility test [10]
I: antibiotic susceptibility test [1] | antibiotic susceptibility test [2] | antibiotic susceptibility test [3] | antibiotic susceptibility test [7]

CN[C@H](CC(C)C)C(=O)N[C@H]1C(=O)N[C@@H](CC(N)=O)C(=O)N[C@H]2C(=O)N[C@H]3C(=O)N[C@H](C(=O)N[C@H](C(=O)O)c4cc(O)cc(O)c4-c4cc3ccc4O)[C@H](O)c3ccc(c(Cl)c3)Oc3cc2cc(c3O[C@@H]2O[C@H](CO)[C@@H](O)[C@H](O)[C@H]2O[C@H]2C[C@](C)(N)[C@H](O)[C@H](C)O2)Oc2ccc(cc2Cl)[C@H]1O [VA30, vancomycin]
I: antibiotic susceptibility test [1] | antibiotic susceptibility test [2] | antibiotic susceptibility test [3] | antibiotic susceptibility test [6] | antibiotic susceptibility test [7] | antibiotic susceptibility test [8] | antibiotic susceptibility test [9]
S: antibiotic susceptibility test [4] | antibiotic susceptibility test [5]
R: antibiotic susceptibility test [10]

bacitracin [B2]
R: antibiotic susceptibility test

spiramycin [SP100]
S: antibiotic susceptibility test [2] | antibiotic susceptibility test [4]
R: antibiotic susceptibility test [1] | antibiotic susceptibility test [10]
I: antibiotic susceptibility test [3] | antibiotic susceptibility test [5] | antibiotic susceptibility test [6] | antibiotic susceptibility test [7] | antibiotic susceptibility test [8] | antibiotic susceptibility test [9]
